# According to the supplement of paper PMC11417369:
# The other results are listed elsewhere or left out.
# Test system: PF3D7_0420300 AP2 domain 1 (GST-tagged)
# Assay: gcPBM binding intensity (ln(normalized median fluorescence intensity)); higher = stronger DNA binding
# Outline: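 Binding intensity values are the highest Masliner-normalised natural-log median intensity among replicate spots of either probe orientation. The binding step lasted 1 h in 1× PBS with 1% milk, 0.2 mg/ml BSA, 0.5% salmon testes DNA and 0.03% Triton X-100, using GST-tagged P. falciparum DNA-binding domains expressed in E. coli on an Agilent 4 × 180k array of primer-extended double-stranded 36-bp intergenic genomic probes plus negative controls. Alexa488 anti-GST antibody and a 488 nm scan detected bound protein.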
row,Sequence,gcPBM binding intensity (ln)
1,AATGAGCGTTAAAAATGTACAGAAAATTGGAATTAT [XGTACX_site5743],9.4
2,AAAACTTTTAGTTATACACACAACATAGAAAATATT [CACACA_site6287],9.54
3,AACAATCAAATAGACACACACACACCCAAACATAAA [CACACA_site2757],10.1
4,CTCCTACAAATATGTAGTACATTCAAAATAAATACC [XGTACX_site8207],8.99
5,ATGCAATAAATATACACACACAAATCTATATTTATA [CACACA_site7179],9.84
6,AAATAAAATAATTATAATACTAAAAATAATACATAA [GTGCAC_negctrl_site106],9.42
7,AATTATTATATATATATATATATATATTTATATATT [GTGCAC_negctrl_site387],9.11
8,AGTTCAAGGATTAAGACACACATATAAATAAATAAA [CACACA_site3662],9.46
9,AAAAAATGGATGATCACACACTTCATAAAAGTTGCA [CACACA_site7109],9.24
10,TTTTTTTTGTAGAATTGTACTTATAAAATATATATA [XGTACX_site2116],8.84
11,CATTATGTTGTAAATACACACATACCTATACATACA [CACACA_site6485],9.54
12,TATTTATTTATATTTACACACATTCATATAAATTCA [CACACA_site7628],9.48
13,TTTTTTTTTTTATCTGCACACCCTTTTGTGAATATT [CACACA_site789],9.36
14,TCTGAGAATGATAAAAAAAAAAAAAATGAAAAATTA [CACACA_negctrl_site1478],8.93
15,ACGATATTTTTGGTGACACACATATATATATATATA [CACACA_site126],9.53
16,TAATAAGTATAAAATAGTACATATAAATATATCAAA [XGTACX_site8834],9.38
17,AGGAATAAATAATTAACACACACAATCTTTTTTTTT [CACACA_site9027],9.76
18,ACTTTTTCACATAAAAATGATCCGATTAGTAATAAT [XGTACX_negctrl_site248],9.16
19,AAATAAAAAAACTATTGTACTGAATACAAATTAAAT [XGTACX_site3793],9.24
20,ATAATATTAGTAAACACACTCAAATTATATATGATA [CACACA_site5721],9.3
21,AGTATACATTCATTTTGTACTCAATGATTTGATAAC [XGTACX_site6787],9.09
22,ATAATTATATTCCATACACACATATATTTAAAGGTT [CACACA_site2957],9.53
23,CATTTTTTAAGCATCACACACGAAAGAACAAAGTGG [CACACA_site4755],9.47

row,Sequence,gcPBM binding intensity (ln)
1,TTTTTTTTTTTAAGGTGTACAATAAAAATTTATGCA [XGTACX_site8860],8.87
2,TGGAAAATTATAAGGTGTACATATAAGCTATTATAT [XGTACX_site118],9.38
3,CATATATAAAATATATGTACTTATAGAACATAATTT [XGTACX_site1936],9.06
4,TTATAATAAATATGAAGTACTATAAATATGGTATAT [XGTACX_site5448],9.34
5,CACTAAAATGGACACACACACACACCGATATATATA [CACACA_site6139],10.2
6,AATAAATATAGGAATACACACAATATAAATGTATTG [CACACA_site3366],9.67
7,ATCGCATAAAGACAAGAACACACATATATATTGTAG [CACACA_site9229],9.41
8,TTTTTATTGAGAACAGTGCAAATAACAAAAAAAAAA,9.22
9,ATTTGGCATAAACACACACACACACCCACCCACATA [CACACA_site8096],10.4
10,TAAATAAATACATACACACACATACATATATATATA [CACACA_site3129],9.94
11,TTATTGTTTATTAAATGTACAGATTCGTTAAAATTA [XGTACX_site3041],8.98
12,ACAACAATATGGAATTGTACATATATATATAAATAT [XGTACX_site3139],9.32
13,CTAGCAAATACATACACACACACACCCATACATATA [CACACA_site3496],10.3
14,TATTTTTTTGTGTTTGGTACACACGTTATAAAAAAT [XGTACX_site2655],9.17
15,TACACAAAACATAAAAGTACATAATAATAAAGTTAA [XGTACX_site8872],9.56
16,GAACAAATAAAAAGGAGTACAATCAAATCTACGTAT [XGTACX_site343],9.59
17,AAATTATAATTAGGAACACACATATATATATATATA [CACACA_site3098],9.4
18,TACATACATACATACATACACACATATATATATATA [CACACA_site1996],9.45
19,TACATGTATAATATAATACACACTATATAATATACA [CACACA_site2239],9.41
20,AAAAAGAAGATGCAAACATGCACACAGAAAAAAAAA [TGCATGCA_site375],9.51
21,AAAAAAAAAAAAATTACACACATACAGATAATAATA [CACACA_site5244],9.92
22,TTTTCATTCCACAACGCACACCCATTTAAAAAAAAA [CACACA_site1377],9.26
23,CTATTATAAAAATGATGTACACTTATATATACATAT [XGTACX_site6087],9.27

row,Sequence,gcPBM binding intensity (ln)
1,TTTTTTTTTTGAATATGTACTTAAAAAAATTTTTTT [XGTACX_site3851],8.84
2,AATCAAATATTTAAATGTACTCAAGAAGGCTTAATC [XGTACX_site6907],9.23
3,AAAAAATATTTTAGTGGTACATTTGTAGCTCTCAAA [XGTACX_site4859],9.08
4,ATAACATGAACATATGTTACACAAACATACATACAT [XGTACX_negctrl_site365],9.38
5,TATGAAGACACAAATACACACACTCAAAAAAAAAAA [CACACA_site2660],9.67
6,AAAAATATAATATAATGTACACAAAAAAAAAAAATC [XGTACX_site1427],9.71
7,GAAAAAAAAAAAAAAAAACACACGGTACATTCAAAG [CACACA_site303],9.53
8,TTTTTTTTACATGAACGTACATAATATATTTTATAA [XGTACX_site5249],9.05
9,TGGTGTTTTTTTTAATGTACTTATAAAATAATACAT [XGTACX_site6574],9.24
10,ATGTAAAAATAAAGATGTACATGTATATATATATAT [XGTACX_site5193],9.43
11,AATATATATTCATGTGTACACACAAAAAAAAATAAA [CACACA_site8690],9.76
12,CCTATAATTAGGGGTAGTACACAAAAAAAAAAAAAA [XGTACX_site6396],8.94
13,TTAAAAAAGAATTGTGCACACACAAAAAATGTTCAT [CACACA_site1102],9.41
14,AATTCCTTATACAATTGTACATAAAAAGAATAAAAA [XGTACX_site1343],9.05
15,ATCAAACAAAAAATAAAAAAATGCGACATGTGTACA [TGCATGCA_negctrl_site164],9.61
16,TATAAAATTTAAATTATACACACTTAAGTAACATCA [CACACA_site531],9.34
17,TTAATATTTTTAATTTGTACATATAATTAAATCTCT [XGTACX_site1736],8.95
18,GAAAATTATGTATATTGTACAAATATTATATTAAAT [XGTACX_site2467],9.19
19,TTGAATACATATATATGTACATATTCTATGGTTAGA [XGTACX_site4088],9.05
20,CAAGGACAATTTACAAACATAATATATGTATATATA [TGCATGCA_negctrl_site5],9.14
21,CTGAGGAAGCTAATTACACACATGCATATTTTTTTT [CACACA_site2177],9.6
22,ATTATCTTCAAGTATGTACACACTATATATAATAAA [CACACA_site2441],9.35
23,ATAAATTTACTTGATTGTACATTTCTTAGTTGTATT [XGTACX_site3057],9.46

row,Sequence,gcPBM binding intensity (ln)
1,TATACTGATAAAAAAAGTACTAGAGTTTGTAAAAAT [XGTACX_site3934],9.27
2,CACAAGAAAGTTCACACACACACATATATATATATA [CACACA_site6009],9.95
3,TTATATGTCAATTTGCGTACATACATAATTACATAT [XGTACX_site1546],9.24
4,AATTTTAATTTTTTGACACACATATAATATATATAT [CACACA_site3978],9.37
5,TATGGGTATGTATTCACACATAACAAAAATATCAAA [CACACA_site5059],9.22
6,ATATATATATATAACACACGCAAAAAAATTAAATAA [CACACA_site1400],9.69
7,TTTTATATATTCAATTGTACATGTATTTTTTTTTTT [XGTACX_site3584],9.37
8,CAAAGACACAAACACACACACACATACATACATACA [CACACA_site453],10.1
9,TTTATTTTTAAAGGCACACACATTTTTATTTTTAAA [CACACA_site2021],9.32
10,TTCTTTTTTTTCAGTTGTACTTATAAGAAAGAAAAA [XGTACX_site4028],8.7
11,TTTATTTATAGAATTACACACATATATACACAAATG [CACACA_site7338],9.56
12,TTATTATAAATAGGTAGTACATTTTGAACAAATATT [XGTACX_site8866],9.21
13,ATATATATAACAAAAGTGCATTAAGGGGATGCTATA,9.43
14,AATATAAATATAGGAAATGTAGTTAAAAGGTGTATG [CACACA_negctrl_site1233],9.5
15,ATACGACAAATATAAAGTACAAGCTTGGTTTTTATA [XGTACX_site8103],9.41
16,AATTATGGGGAAAAGACACACATATATATATATATA [CACACA_site2589],9.2
17,TATGCAAGGAACCACACACACACACGGAAATGTATA [CACACA_site6490],10.2
18,ATTCTATAGAAACACACACACATGCATGCACCTATA [CACACA_site107],9.96
19,TTATATATATATGTATGTACTTATAACTTTTATTAG [XGTACX_site3190],9.26
20,ATAAGGTTACAACAAACACACAAAGGAATATACGCA [CACACA_site4090],10
